Experimental data as given in PMC4336329 (PLoS ONE, 2015).
Among all 310,000 compounds or so, about 14,000 (4.5%) showed an effect of 50% or more. The effect is printed as a negative number. The list shows a part of the results.

These molecules were tested against human ether-à-go-go-related gene (hERG) potassium channel (human, UniProt Q12809) (assay: primary screen, population patch clamp on CHO cells stably expressing hERG).
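Further: peak tail current of the secondary pulse compared with the same well before compound.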

Chain of human ether-à-go-go-related gene (hERG) potassium channel (Q12809 whole entry, looked up): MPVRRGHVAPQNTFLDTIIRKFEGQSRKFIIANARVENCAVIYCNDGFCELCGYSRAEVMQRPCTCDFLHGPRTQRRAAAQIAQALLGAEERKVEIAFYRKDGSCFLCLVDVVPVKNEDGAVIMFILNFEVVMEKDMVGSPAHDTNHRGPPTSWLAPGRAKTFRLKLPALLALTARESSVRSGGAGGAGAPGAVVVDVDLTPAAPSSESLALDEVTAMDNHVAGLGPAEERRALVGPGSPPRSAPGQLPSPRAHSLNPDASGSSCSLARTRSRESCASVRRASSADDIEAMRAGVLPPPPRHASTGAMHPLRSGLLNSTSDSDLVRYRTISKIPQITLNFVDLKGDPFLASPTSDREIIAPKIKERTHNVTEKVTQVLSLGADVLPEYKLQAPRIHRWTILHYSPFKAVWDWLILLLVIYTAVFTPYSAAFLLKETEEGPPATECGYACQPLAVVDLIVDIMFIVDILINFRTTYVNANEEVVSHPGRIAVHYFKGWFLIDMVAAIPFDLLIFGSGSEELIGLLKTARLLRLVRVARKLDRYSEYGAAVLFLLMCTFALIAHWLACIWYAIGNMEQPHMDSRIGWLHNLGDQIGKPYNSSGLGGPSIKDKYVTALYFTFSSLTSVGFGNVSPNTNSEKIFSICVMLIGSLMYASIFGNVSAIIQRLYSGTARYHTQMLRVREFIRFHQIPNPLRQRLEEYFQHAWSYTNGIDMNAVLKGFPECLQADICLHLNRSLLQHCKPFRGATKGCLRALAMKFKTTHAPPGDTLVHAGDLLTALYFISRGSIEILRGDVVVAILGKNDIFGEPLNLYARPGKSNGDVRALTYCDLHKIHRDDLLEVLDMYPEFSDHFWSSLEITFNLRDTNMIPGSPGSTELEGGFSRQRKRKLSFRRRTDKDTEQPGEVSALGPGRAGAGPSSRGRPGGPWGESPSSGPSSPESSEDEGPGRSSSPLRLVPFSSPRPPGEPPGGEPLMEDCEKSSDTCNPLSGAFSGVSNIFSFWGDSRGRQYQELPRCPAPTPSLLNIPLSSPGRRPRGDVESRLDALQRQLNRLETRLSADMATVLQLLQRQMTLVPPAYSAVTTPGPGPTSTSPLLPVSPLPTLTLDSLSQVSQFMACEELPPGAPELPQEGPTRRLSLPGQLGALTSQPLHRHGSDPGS

Row | Compound | hERG current change (%, negative = inhibition) at 10uM
1 | Cc1ccc2c([N+](=O)[O-])c(C)ccc2n1 | 8.15%
2 | C=CCNC(=O)CNS(=O)(=O)c1ccc(F)cc1 | 4.33%
3 | CCOC(=O)C(C)NC(=O)C(NC(=O)C1CCC(CC)CC1)C(C)C (stereo not shown) | -2.49%
4 | COc1ccc(OCCSc2nc3nc(C)cc(C)n3n2)cc1 | -13.1%
5 | Nc1ncnc2c1ncn2CCN1CCCCC1 | -9.9%
6 | Nc1nccc(-c2nn(-c3ccc(Cl)cc3)ccc2=O)n1 | 19.4%
7 | Cc1ccccc1C(=O)NC(C)c1ccc2c(c1)CCCC2 (stereo not shown) | -5.29%
8 | O=C(O)COc1ccc(=O)n(-c2ccccc2)n1 | 8.54%
9 | Fc1ccc(Oc2nccc(-c3ccc(Cl)cc3)n2)cc1 | 1.89%
10 | O=C(c1cncc(Br)c1)N1CCN(c2ccc([N+](=O)[O-])cc2)CC1 | -77%
11 | CC(=O)OCC(=O)NCCCOc1cccc(CN2CCCCC2)c1.Cl | -2.29%
12 | Cc1sc2c(c1C)C(c1cccs1)=NCC(=O)N2CC(=O)NCc1cccs1 | -56.2%
13 | O=C(CCCn1cc([N+](=O)[O-])cn1)NCc1ccccc1 | -5.64%
14 | CC(=O)Nc1ccc(N(C(=O)c2cnccn2)C(C(=O)NC2CCCCC2)c2ccc(F)cc2)cc1 (stereo not shown) | 0.645%
15 | COc1ccc(OC)c(-c2csc(NC(=O)Cn3[nH]c(=O)c4ccccc4c3=O)n2)c1 | 1.19%
16 | O=C(c1cccnc1)N1c2ccccc2Sc2ccccc21 | -18.1%
17 | CCOC(=O)Cc1csc(NC(=O)c2cc(C)c(C)s2)n1 | -8.58%
18 | COc1ccc(Cl)cc1NC1=NCC(C)S1 (stereo not shown) | -7.11%
19 | CS(=O)(=O)Oc1ccc2c(c1)O/C(=C\C=C\c1ccccc1)C2=O | 8.05%
20 | CC1CCc2nn(CC(=O)Nc3c(F)cc(F)cc3Br)cc2C1 (stereo not shown) | 3.49%
21 | CCOC(=O)C1=C(N)Oc2cc(C)oc(=O)c2C12C(=O)N1c3c(cccc32)C(C)=CC1(C)C (stereo not shown) | -13.6%
22 | CCN(CC)S(=O)(=O)c1cccc(C(=O)OCC(=O)Nc2ccc3c(c2)c2ccccc2n3CC)c1 | 4.01%

Row | Compound | hERG current change (%, negative = inhibition) at 10uM
23 | CCOC(=O)Cc1csc(NC(=S)NC(=O)c2ccccc2)n1 | 16.1%
24 | N#Cc1ccc(C(c2nnnn2CCc2ccccc2)N2CCCCCC2)cc1 (stereo not shown) | -26.3%
25 | O=C(CCNC(=O)c1ccccc1)OCC(=O)c1cccc(Cl)c1 | 3.67%
26 | COc1ccc(/C=N/NC(=O)CCC(=O)Nc2ccccc2)cc1OC | -3.99%
27 | O=C(c1ccc(Br)o1)N1CCN(c2ccc3nnc(-c4ccc(F)cc4)n3n2)CC1 | -46.4%
28 | O=C(OCc1nnc(-c2ccc(Cl)cc2)o1)c1ccncc1 | 3.07%
29 | Cc1cc2nc(CCl)cc(=O)n2[nH]1 | 17.4%
30 | Cc1cc(C)n2nc(C(=O)N/N=C/c3c4ccccc4cc4ccccc34)nc2n1 | -15.8%
31 | Cc1[nH]c(C)c(S(=O)(=O)Nc2cccc(Cl)c2C)c1C(=O)N1CCCCC1 | -11.3%
32 | O=c1cc(-c2ccccc2Cl)oc2c(Br)ccc(O)c12 | 9.75%
33 | CCOc1ccc2cc(S(=O)(=O)N3CCCCC3)ccc2c1 | 22%
34 | O=C(c1cccs1)N1CCc2c([nH]c3ccccc23)C1c1ccccn1 (stereo not shown) | -35.2%
35 | COc1cc([N+](=O)[O-])ccc1NC(=O)/C=C\C(=O)O | 7.85%
36 | Cc1ccccc1-n1c(SCC(=O)N2CCN(c3ccccc3)CC2)nnc1-c1ccncc1 | -38.2%
37 | COc1ccc(CCNC(=O)c2ccccc2NC(=O)C2=C(C)OCCS2)cc1OC | 19.4%
38 | CC1CCc2sc(C(=O)OCC(=O)NC(N)=O)cc2C1 (stereo not shown) | 22%
39 | CC(C)C(c1nnnn1Cc1ccccc1)N1CCc2ccccc2C1 (stereo not shown) | -1.4%
40 | CCN1CCN(CCNC(=O)c2ccc(CS(=O)(=O)c3ccccc3C)o2)CC1 | -1.23%
41 | COc1ccc(S(=O)(=O)NC(C)C(=O)O)cc1 (stereo not shown) | 1.62%
42 | COc1cc(C(F)(F)F)nc2c(Br)c(C(C)(C)C)nn12 | 9.62%
43 | COc1ccc(NC(=O)CSc2nnnn2-c2ccc(OC)cc2)cc1 | 18.4%
44 | COc1ccc(N(C(=O)CSCC(=O)Nc2cc(C)on2)C(C(=O)NC2CCCCC2)c2ccc(O)c(O)c2)cc1 (stereo not shown) | 12.1%

Row | Compound | hERG current change (%, negative = inhibition) at 10uM
45 | Nc1ccccc1-c1nnc(SCc2ccccc2Cl)[nH]c1=O | -0.313%
46 | CC1CN(C(=O)C2CCCN2S(=O)(=O)c2ccc(Cl)cc2)CC(C)O1 (stereo not shown) | 0.336%
47 | O=C(C[n+]1ccc(-c2ccccc2)cc1)Nc1ccc([N+](=O)[O-])cc1.[Br-] | -24.2%
48 | CC1(CCc2ccccc2)NC(=S)N(c2ccc(Cl)cc2)N1 (stereo not shown) | 12.7%
49 | COc1ccc(C2(C)NC(=O)N(CC(=O)NC3(C#N)CCCCC3)C2=O)cc1 (stereo not shown) | 14.3%
50 | COc1cc(C(=O)OCC(=O)N2CCC(C)CC2)cc2c1OCCO2 | 0.559%
51 | Cc1cccc2sc(NNC(=O)c3ccc(S(=O)(=O)N4CC(C)CC(C)C4)cc3)nc12 (stereo not shown) | 5.29%
52 | CCc1cc(C(=O)NCC2CCCO2)sc1C (stereo not shown) | 19.5%
53 | CCN(CC)CCCN1C=C2C(=O)C(C)(OC(=O)C3CCCC3)C(=O)C(c3ccccc3)=C2C=C1CCCC(=O)OC (stereo not shown) | -16.7%
54 | CC1(c2nnc(-c3ccc(Cl)cc3)o2)CC(c2ccncc2)=NO1 (stereo not shown) | -30.9%
55 | CCCCN(C)C(=O)c1ccc2c(c1)N(CC)C(=O)c1ccccc1S2=O (stereo not shown) | 1.34%
56 | CSCCOC(=O)c1[nH]c2c(c1C)C(=O)CC(c1ccco1)C2 (stereo not shown) | -1.18%
57 | CCOc1ccc(C(=O)NCC(C)CN(C)C)cc1OCC (stereo not shown) | -34.5%
58 | COc1ccc(-c2ccnc3[nH]n(-c4ccccc4)c(=O)c23)cc1 | 10.5%
59 | N#CCCN1CCN(C(=S)c2ccc(-c3ccc(Cl)cc3)o2)CC1 | -55.8%
60 | C=CCNc1nc2c(c(=O)[nH]c(=O)n2C)n1CCCCC | -12.1%
61 | S=C1NC2=C(CCCC2=C2SCCS2)C(c2ccccc2)N1 (stereo not shown) | 11.7%
62 | CCCCNc1ccc(C(=O)OCCOCCOCCOCCOCCOCCOCCOCCOCCOC)cc1 | -9.24%
63 | O=C(COC(=O)c1cccs1)Nc1ccc(F)c(F)c1 | 12.2%
64 | C=CCNC(=O)C(=O)N/N=C/c1ccco1 | -8.46%
65 | Cc1cccc(C)c1OCCOCCN1CCN(C)CC1 | -11.4%
66 | Cc1oc(-c2ccccc2F)nc1CN1CCC(C(=O)NC2CCCc3ccccc32)CC1 (stereo not shown) | -63.9%

Row | Compound | hERG current change (%, negative = inhibition) at 10uM
67 | COc1ccc(CN2CCN(CCCCOc3ccc(Cl)cc3)CC2)c(OC)c1OC.O=C(O)C(=O)O | -74.4%
68 | COc1ccc(OCC(=O)N2CCCC(N3CCN(c4ccccc4C)CC3)C2)cc1 (stereo not shown) | -85.9%
69 | COc1nc2ccccc2c(=O)n1OCC(C)C | -9.23%
70 | Clc1ccc(/C=C/c2ncc[nH]2)c(Cl)c1 | -2.62%
71 | Nn1c(SCC(=O)Nc2ccc(S(N)(=O)=O)cc2)nnc1-c1ccco1 | -2.12%
72 | Cc1cc(=O)oc2cc(OCC(=O)OCC(=O)NC(=O)NC(C)C)ccc12 | 13.2%
73 | CCCCN1C(=O)NC(=O)C2(Cc3c(nc4c(C)cccn4c3=O)N3CCc4ccccc4C32)C1=O (stereo not shown) | -8.41%
74 | Fc1ccccc1N1CCN(Cc2cnc(Cl)s2)CC1 | 20.7%
75 | CC(=O)c1sc(NC(=O)c2ccc(C)c(C)c2)nc1C | -2.61%
76 | O=[N+]([O-])c1ccccc1CS(=O)(=O)c1ccccc1 | 0.0419%
77 | Cc1ccc2c3c([nH]c2c1C)-c1nonc1CC3 | 20.2%
78 | Cn1c(O)c(C(=O)c2ccccc2F)c(=O)n(C)c1=O | 8.56%
79 | CCN(CCCNc1ncnc2nc[nH]c12)c1cccc(C)c1 | -22.7%
80 | CCOc1cccc2sc(N(CCCN(C)C)C(=O)c3ccc(S(=O)(=O)N(C)Cc4ccccc4)cc3)nc12.Cl | -40.4%
81 | CC(C)(C)OC(=O)N[C@@H](CCCCNC(=O)OCc1ccccc1)c1nnc([C@H](CCCCNC(=O)OCc2ccccc2)NC(=O)OC(C)(C)C)o1 | -22.6%
82 | COc1cccc(CNC(=O)C2CCN(S(=O)(=O)c3ccc4c(c3)CC(C)N4C(=O)C3CC3)CC2)c1 (stereo not shown) | 6.62%
83 | CCN(CC)CCN1C(=O)Cn2c(C)c(C)c3cccc1c32.O=C(O)C(O)C(O)C(=O)O | -65.1%
84 | Cc1cc(C)c(C#N)c(Nc2ccc3c(c2)OCCO3)n1 | 5.17%
85 | COc1ccc([C@H]2CC(=O)C=C(c3cc(OC)ccc3OC)C2)cc1 | -15.6%
86 | CCCCNC(=O)N1CCC(CCC(=O)N(C)Cc2ccccc2)CC1 | -3.81%
87 | COc1cc(Cl)ccc1OCc1cc(C(=O)N(C)CCc2c(C)n[nH]c2C)no1 | -19.5%
88 | Cc1ccc(-c2nc(C=Nc3ccccc3)c(O)o2)cc1 | 12.6%
